# Measurements reported in a collection of fitness landscapes (doi:10.1126/science.1257360).
# The list shows a part of the results.
# B1: PhoQ; a variant is named by its letters at X, in order, P23837 (parent)
# chain: MKKLLRLFFPLSLRVRFLLATAAVVLVLSLAYGMVALIGYSVSFDKTTFRLLRGESNLFYTLAKWENNKLHVELPENIDKQSPTMTLIYDENGQLLWAQRDVPWLMKMIQPDWLKSNGFHEIEADVNDTSLLLSGDHSIQQQLQEVREDDDDAEMTHSVAVNVYPATSRMPKLTIVVVDTIPVELKSSYMVWSWFIYVLSANLLLVIPLLWVAAWWSLRPIEALAKEVRELEEHNRELLNPATTRELTSLVRNLNRLLKSERERYDKYRTTLTDLTHSLKTPLXXLQXXLRSLRSEKMSVSDAEPVMLEQISRISQQIGYYLHRASMRGGTLLSRELHPVAPLLDNLTSALNKVYQRKGVNISLDISPEISFVGEQNDFVEVMGNVLDNACKYCLEFVEISARQTDEHLYIVVEDDGPGIPLSKREVIFDRGQRVDTLRPGQGVGLAVAREITEQYEGKIVAGESMLGGARMEVIFGRQHSAPKDE
# Variants of: B1
# Assay: enrichment ratio after two sorts for PhoP signalling (ratio (wild type AVST 3.29)); higher = more functional
# Details: with PhoP (E. coli)
row,Variant,enrichment ratio
1,RDFF,≤ 0.25
2,FCCN,≤ 0.25
3,HWRG,≤ 0.25
4,IHWA,≤ 0.25
5,KSLC,≤ 0.25
6,WSPC,≤ 0.25
7,IMNP,≤ 0.25
8,VKDI,≤ 0.25
9,YSSK,≤ 0.25
10,STHY,≤ 0.25
11,FDEW,≤ 0.25
12,NREW,≤ 0.25
13,EVDC,≤ 0.25
14,SPYK,≤ 0.25
15,RAYR,≤ 0.25
16,VYRC,≤ 0.25
17,HFMY,≤ 0.25
18,GCWA,≤ 0.25
19,AARV,≤ 0.25
20,VDMP,≤ 0.25
21,KEPR,≤ 0.25
22,EYKY,≤ 0.25
23,AFDR,≤ 0.25
24,FVIC,≤ 0.25
25,QEYY,17.4

row,Variant,enrichment ratio
1,AVAK,9.48
2,HRDV,≤ 0.25
3,TFQN,1.88
4,MICK,≤ 0.25
5,DFRE,≤ 0.25
6,QAYT,≤ 0.25
7,IDRW,≤ 0.25
8,KHVL,≤ 0.25
9,VTMV,2.37
10,LNQM,≤ 0.25
11,TSHN,0.659
12,FYHP,≤ 0.25
13,HLST,≤ 0.25
14,YQVR,≤ 0.25
15,TDDS,≤ 0.25
16,GGYP,≤ 0.25
17,LFIL,≤ 0.25
18,QRSG,≤ 0.25
19,MAIH,≤ 0.25
20,LGSQ,≤ 0.25
21,NTCA,≤ 0.25
22,MCYF,3.56
23,ATGI,13.1
24,MTMI,1.88
25,SRWW,≤ 0.25

row,Variant,enrichment ratio
1,YQMP,≤ 0.25
2,EYME,≤ 0.25
3,AKRM,≤ 0.25
4,LAYC,≤ 0.25
5,IRMM,≤ 0.25
6,TCYV,9.55
7,FSQQ,≤ 0.25
8,LANM,≤ 0.25
9,VKDA,≤ 0.25
10,TNQN,16.8
11,ELSD,≤ 0.25
12,YCIC,≤ 0.25
13,DCQG,≤ 0.25
14,LCPH,≤ 0.25
15,QMHY,≤ 0.25
16,MAST,≤ 0.25
17,RIDN,≤ 0.25
18,QWFV,≤ 0.25
19,VDIN,≤ 0.25
20,FVYA,≤ 0.25
21,RMVS,≤ 0.25
22,TTFY,1.18
23,VWFG,≤ 0.25
24,WEHS,≤ 0.25
25,ESAP,≤ 0.25

row,Variant,enrichment ratio
1,AMWD,≤ 0.25
2,TINQ,3.05
3,AYLE,≤ 0.25
4,QHGG,≤ 0.25
5,QIVV,≤ 0.25
6,VLWD,≤ 0.25
7,ILLP,≤ 0.25
8,MPTV,≤ 0.25
9,QKRA,≤ 0.25
10,ECVD,≤ 0.25
11,EIEI,≤ 0.25
12,WVCC,≤ 0.25
13,VLPE,≤ 0.25
14,IHVM,≤ 0.25
15,LQQL,≤ 0.25
16,HQDP,≤ 0.25
17,VECN,≤ 0.25
18,SFEQ,≤ 0.25
19,QGML,6.23
20,TEMR,12.2
21,GWVQ,≤ 0.25
22,EMLC,≤ 0.25
23,IHAL,≤ 0.25
24,IFIA,≤ 0.25
25,WQVQ,≤ 0.25

row,Variant,enrichment ratio
1,LALE,≤ 0.25
2,MHAI,≤ 0.25
3,QHIN,≤ 0.25
4,PWYR,≤ 0.25
5,SNNM,13.1
6,MADC,≤ 0.25
7,QYVT,≤ 0.25
8,KYWP,≤ 0.25
9,YILG,3.1
10,SMCP,0.358
11,TAND,6.24
12,TKGI,2.06
13,PYRA,≤ 0.25
14,DFGS,≤ 0.25
15,MGPA,≤ 0.25
16,RACP,≤ 0.25
17,MISE,≤ 0.25
18,IDIG,≤ 0.25
19,HKFV,≤ 0.25
20,QDGV,≤ 0.25
21,SKWV,≤ 0.25
22,EIAN,≤ 0.25
23,MYTE,≤ 0.25
24,DQAR,≤ 0.25
25,GLFW,≤ 0.25

row,Variant,enrichment ratio
1,FRTH,≤ 0.25
2,RYWF,≤ 0.25
3,GRVL,≤ 0.25
4,SQCH,10.5
5,HNQI,≤ 0.25
6,FIWM,≤ 0.25
7,SSMQ,11.5
8,FRTY,≤ 0.25
9,GRQF,≤ 0.25
10,LPWQ,≤ 0.25
11,TQEL,≤ 0.25
12,PMSV,≤ 0.25
13,IGQY,≤ 0.25
14,QTRP,≤ 0.25
15,ICHQ,≤ 0.25
16,YQLT,≤ 0.25
17,TSTK,≤ 0.25
18,GLDL,≤ 0.25
19,NVQL,≤ 0.25
20,VVMY,≤ 0.25
21,WTFP,≤ 0.25
22,RLRE,≤ 0.25
23,HRIN,≤ 0.25
24,FWMH,≤ 0.25
25,HGGA,≤ 0.25

row,Variant,enrichment ratio
1,KPCH,≤ 0.25
2,NGFN,≤ 0.25
3,DVRK,≤ 0.25
4,NIWS,≤ 0.25
5,LAWM,≤ 0.25
6,NPMY,≤ 0.25
7,PMAL,≤ 0.25
8,QQVQ,≤ 0.25
9,PLCP,≤ 0.25
10,RRVL,≤ 0.25
11,MFNI,≤ 0.25
12,GFLK,≤ 0.25
13,ELVE,≤ 0.25
14,HITT,≤ 0.25
15,HRGS,1.37
16,FVTE,≤ 0.25
17,TGYW,≤ 0.25
18,LHNM,≤ 0.25
19,TDKL,≤ 0.25
20,SSSI,15.2
21,YWQH,≤ 0.25
22,WLGF,≤ 0.25
23,MHGQ,≤ 0.25
24,PKID,≤ 0.25
25,ISGH,≤ 0.25

row,Variant,enrichment ratio
1,DHIK,≤ 0.25
2,GYNH,≤ 0.25
3,VMGW,≤ 0.25
4,TIHD,≤ 0.25
5,LGMC,≤ 0.25
6,SFIL,≤ 0.25
7,SSWY,0.557
8,NQMM,≤ 0.25
9,WKQH,≤ 0.25
10,YHNI,≤ 0.25
11,RQKY,≤ 0.25
12,MHLD,≤ 0.25
13,ENLC,≤ 0.25
14,LWIF,≤ 0.25
15,LEHC,≤ 0.25
16,NDLT,≤ 0.25
17,WEVF,≤ 0.25
18,KTKF,≤ 0.25
19,MTAP,≤ 0.25
20,GNNN,≤ 0.25
